Results from the supplement of paper PMC10326071.
The list shows a part of the results. Most values come without repeats; read them as rough.

Experiments:
[1] = test system: SARS-CoV-2 nsp3 SARS-unique domain core (SUD-core, nsp3 residues 413-676); experiment: dissociation rate constant koff (BLI); higher = faster dissociation; settings: 100 µM; 25 °C
[2] = test system: SARS-CoV-2 nsp3 SARS-unique domain core (SUD-core, nsp3 residues 413-676); experiment: apparent dissociation constant Kd (single-concentration BLI fit); higher = weaker binding; settings: 100 µM; 25 °C

SMILES | dissociation rate constant koff [1] | apparent dissociation constant Kd [2]
Cc1cn(C2O[C@@H](CO)[C@H](O)[C@H]2F)c(=O)[nH]c1=O (some centres not stated) | 0.0146 s⁻¹ | 105 µM
CNc1nc(-c2ccc3c(N)n[nH]c3c2)cc(N2C[C@@H](C(=O)NC3CCCCC3)CC[C@H]2C)n1 | 0.281 s⁻¹ | 3510 µM
Nc1cc(Nc2ccc(S(N)(=O)=O)cc2)ncn1 | 0.671 s⁻¹ | 1370 µM
Nc1ncnc2nc[nH]c12 | 0.0406 s⁻¹ | 295 µM
Cn1nccc1Nc1nccc(-c2ccn([C@H](CO)c3ccc(Cl)c(F)c3)c(=O)c2)n1 | 0.255 s⁻¹ | 2930 µM
O=c1[nH]c(=O)n([C@H]2C[C@H](O)[C@@H](CO)O2)cc1/C=C/Br | 0.0139 s⁻¹ | 96.7 µM
Cc1cn([C@@H]2O[C@H](CO)[C@@H](N=[N+]=[N-])[C@H]2O)c(=O)nc1N | 0.0258 s⁻¹ | 160 µM
C[S+]([O-])c1ccc(-c2nc(-c3ccc(F)cc3)c(-c3ccncc3)[nH]2)cc1 (configuration not stated) | 0.608 s⁻¹ | 1770 µM
CCNC(=O)[C@H]1O[C@@H](n2cnc3c(N)ncnc32)[C@H](O)[C@@H]1O | 0.0141 s⁻¹ | 40.5 µM
Cn1cc(C2=C(c3cn(CCCSC(=N)N)c4ccccc34)C(=O)NC2=O)c2ccccc21 | 0.0164 s⁻¹ | 42.8 µM
CN1CCC(Nc2nc(Nc3ccc(Oc4ccccc4)cc3)c3c(=O)[nH]cc(Br)c3n2)CC1 | 0.024 s⁻¹ | 14900 µM
COc1cc2nnc(C(N)=O)c(Nc3ccc(C)cc3F)c2cc1N1CCN(CCO)CC1 | 0.0885 s⁻¹ | 152 µM
CCc1cc(O)c(F)cc1-c1ccc2c(-c3nc4c([nH]3)CN(C3CCN(C)CC3)CC4)n[nH]c2c1 | 0.105 s⁻¹ | 154 µM
Nc1cccc(-c2cc3c(Oc4cccc(O)c4)ncnc3[nH]2)c1 | 0.446 s⁻¹ | 1570 µM
O=c1[nH]c(=O)n(C2CCCO2)cc1F (configuration not stated) | 0.0124 s⁻¹ | 242 µM
O=c1[nH]c(=O)n([C@H]2C[C@H](O)[C@@H](CO)O2)cc1F | 0.0495 s⁻¹ | 1400 µM
CNC(=O)c1ccc(C)c(-n2c(C)cc(OCc3ccc(F)cc3F)c(Br)c2=O)c1 | 13.2 s⁻¹ | 499 µM
CN1CCN(c2ccc(C(=O)Nc3n[nH]c4ccc(Cc5cc(F)cc(F)c5)cc34)c(NC3CCOCC3)c2)CC1 | 0.0491 s⁻¹ | 1740 µM
Cc1cn([C@H]2C[C@H](O)[C@@H](CO)O2)c(=O)[nH]c1=O | 0.0131 s⁻¹ | 88.7 µM
Nc1ncnc2c1ncn2[C@@H]1O[C@H](COS(=O)(=O)NC(=O)[C@@H](N)CC(=O)O)[C@@H](O)[C@H]1O | 0.024 s⁻¹ | 97 µM
CNC(=O)c1ccc(-c2cnc3cnc(C(=O)N(C)c4ccc(Cl)cc4)cn23)cc1 | 0.523 s⁻¹ | 1890 µM
O=c1cc(N2CCOCC2)oc2c(-c3ccccc3)cccc12 | 0.0659 s⁻¹ | 744 µM
Oc1ccc(/C=C/c2cc(O)cc(O)c2)cc1 | 0.0046 s⁻¹ | 20.8 µM
Nc1nn2cc(F)cnc2c1C(=O)Nc1cncc(F)c1N1CCC(C(=O)N2CCN(C3COC3)CC2)CC1 | 0.0417 s⁻¹ | 6.61 µM
O=C(c1ccc(Oc2ccccc2)cc1Cl)c1c[nH]c2ncnc(N[C@@H]3CC[C@@H](CO)OC3)c12 | 0.0977 s⁻¹ | 9110 µM
COc1ccc(C(OC[C@H]2O[C@@H](n3cnc4c(NC(=O)c5ccccc5)ncnc43)[C@H](O)[C@@H]2O[Si](C)(C)C(C)(C)C)(c2ccccc2)c2ccc(OC)cc2)cc1 | 0.19 s⁻¹ | 174 µM

SMILES | dissociation rate constant koff [1] | apparent dissociation constant Kd [2]
Nc1ncnc2nc(-c3ccc(N4CCOCC4)nc3)cc(-c3cccc(Br)c3)c12 | 0.144 s⁻¹ | 3680 µM
Cc1ncc(NC(=O)NC2c3ccccc3-c3ccccc32)c(-c2ccccc2)n1 | 0.685 s⁻¹ | 15400 µM
Cc1ccc2c(Nc3cccc(OC(F)(F)F)c3)nccc2c1Nc1ncccc1-c1ncnc2nc[nH]c12 | 0.0211 s⁻¹ | 137 µM
COc1nn(C)cc1Nc1nccc(-c2c[nH]c3c(NC(=O)[C@@H](C)N4CCN(C)CC4)cccc23)n1 | 0.329 s⁻¹ | 129 µM
COC[C@](CO)(OC[C@H]1O[C@@H](n2ncc3c(NC4CCCC4)nc(Cl)nc32)[C@H](O)[C@@H]1O)P(=O)(O)O | 0.49 s⁻¹ | 2400 µM
NC1CCC(Nc2cc(-c3cccc(NCc4cccc(F)c4)n3)c(Cl)cn2)CC1 (configuration not stated) | 0.356 s⁻¹ | 1350 µM
O=C(O)c1nn(Cc2ccc(Cl)cc2Cl)c2ccccc12 | 0.259 s⁻¹ | 3030 µM
COc1cc(-c2cc(-c3ccc(N4CCNCC4)cc3)cnc2C)cc(OC)c1OC | 0.0748 s⁻¹ | 64.9 µM
COc1ccc(Cl)c(Nc2ncnc3cc(OCC4CCN(C)CC4)c(OC)cc23)c1 | 0.279 s⁻¹ | 139 µM
Cc1nc(-c2cnn(C)c2)nc2c1[nH]c1ncc(-c3ccc(N4CCN(C)CC4)cc3)cc12 | 0.401 s⁻¹ | 379 µM
Nc1nc2c(ncn2COCCO)c(=O)[nH]1 | 0.0136 s⁻¹ | 114 µM
NC(=O)c1ccc(-c2nc(-c3ccc4c(c3)OCCO4)c(-c3ccccn3)[nH]2)cc1 | 0.0722 s⁻¹ | 47.8 µM
Nc1nnc(Sc2ncc([N+](=O)[O-])s2)s1 | 0.755 s⁻¹ | 750 µM
O=C1C=CC2=C3c4cc(O)c(O)cc4CC3(O)COC2=C1O (configuration not stated) | 0.000887 s⁻¹ | 4.65 µM
CN(C)C(=O)c1cc2cnc(Nc3ccc(N4CCNCC4)cn3)nc2n1C1CCCC1 | 0.0475 s⁻¹ | 20.2 µM
C=CC(=O)N(C)CCOc1c(N)ncnc1-c1cc(F)cc(NC(=O)c2ccc(C3CC3)cc2F)c1C | 0.815 s⁻¹ | 1540 µM
C[C@@]1(F)[C@H](O)[C@@H](CO)O[C@H]1n1ccc(=O)[nH]c1=O | 0.00717 s⁻¹ | 39.7 µM
COc1ccc(C(=C2C(=O)Nc3ccccc32)c2ccc(OC)cc2)cc1 | 0.181 s⁻¹ | 5570 µM
COc1ccc(-c2nc(N3CCOCC3)c3sc(CN(C)c4ncc(C(=O)NO)cn4)cc3n2)cn1 | 0.111 s⁻¹ | 518 µM
CC(C)Oc1cc(Nc2nc(N[C@@H](C)c3ccc(F)cn3)ncc2Cl)[nH]n1 | 0.119 s⁻¹ | 101 µM
Cn1c(=O)c2c(nc(S(C)(=O)=O)n2C)n(CC#Cc2cccc(O)c2)c1=O | 0.337 s⁻¹ | 1670 µM
C[C@@]1(F)[C@H](O)[C@@H](CO)O[C@H]1n1ccc(N)nc1=O | 0.00845 s⁻¹ | 50.2 µM
O=C(O)c1ccccc1Nc1cccc(C(F)(F)F)c1 | 0.828 s⁻¹ | 1460 µM
c1cncc(CN2CCC(n3ncc4c(N5CCOCC5)nc(-c5ccc6[nH]ccc6c5)nc43)CC2)c1 | 0.182 s⁻¹ | 3390 µM
O=C(Nc1cccc(-c2nncn2C2CC2)c1)c1cc(-n2cnc(C3CC3)c2)ccn1 | 0.171 s⁻¹ | 702 µM
CCN1CCN(Cc2ccc(NC(=O)c3ccc(C)c(NC(=O)c4cncc(-c5cccs5)c4)c3)cc2C(F)(F)F)CC1 | 0.0321 s⁻¹ | 92.2 µM

SMILES | dissociation rate constant koff [1] | apparent dissociation constant Kd [2]
Cn1ncc(Cl)c1-c1cc(C(=O)N[C@H](CN)Cc2ccc(F)c(F)c2)sc1Cl | 0.688 s⁻¹ | 894 µM
Cc1cnc(NC(=O)Nc2cc(Br)c(C)cc2OC[C@@H]2CNCCO2)cn1 | 12 s⁻¹ | 230 µM
CN1CCN(CCOc2cc(OC3CCOCC3)c3c(Nc4c(Cl)ccc5c4OCO5)ncnc3c2)CC1 | 0.669 s⁻¹ | 464 µM
Cc1cn([C@H]2C[C@@H](N=[N+]=[N-])[C@@H](CO)O2)c(=O)[nH]c1=O | 0.0257 s⁻¹ | 1540 µM
COc1cc2c(Oc3ccc4[nH]c(C)cc4c3F)ncnc2cc1OCCCN1CCCC1 | 0.0313 s⁻¹ | 345 µM
CCN1Cc2c(ccc(F)c2C#N)O[C@@H](C)CNC(=O)c2c(N)nn3ccc1nc23 | 0.861 s⁻¹ | 2330 µM
NC(=O)c1ccc[n+]([C@@H]2O[C@H](COP(=O)([O-])OP(=O)(O)OC[C@H]3O[C@@H](n4cnc5c(N)ncnc54)[C@H](O)[C@@H]3O)[C@@H](O)[C@H]2O)c1 | 0.0155 s⁻¹ | 128 µM
COc1ccc([C@@H](O)c2cc(-c3ncnc4cc(N5CCOCC5)ccc34)c(F)cc2Cl)nn1 | 0.00278 s⁻¹ | 21.4 µM
CCCCCCCCCCCCCCCCCCCCCC(=O)Nc1ccn([C@@H]2O[C@H](CO)[C@@H](O)[C@@H]2O)c(=O)n1 | 0.449 s⁻¹ | 2540 µM
COCCO[C@@H]1[C@H](O)[C@@H](CO)O[C@H]1n1ccc(N)nc1=O | 0.111 s⁻¹ | 4770 µM
O=C(Nc1cccnc1)c1cc(C(=O)c2c(F)cccc2Br)c[nH]1 | 1.04 s⁻¹ | 1100 µM
C=C1C(=O)[C@]23[C@H](O)[C@H]1CC[C@H]2[C@@]12CO[C@]3(O)[C@@H](O)[C@@H]1C(C)(C)CC[C@@H]2O | 0.265 s⁻¹ | 3160 µM
COc1ccc(C(OC[C@H]2O[C@@H](n3ccc(NC(=O)c4ccccc4)nc3=O)C[C@@H]2O)(c2ccccc2)c2ccc(OC)cc2)cc1 | 0.0135 s⁻¹ | 84.3 µM
C=CC(=O)N1CCC(CNc2ncnc(N)c2-c2ccc(Oc3ccccc3)cc2)CC1 | 0.417 s⁻¹ | 393 µM
N#Cc1cn([C@@H]2O[C@H](CO)[C@@H](O)[C@H]2O)c2nc[nH]c(=O)c12 | 0.0129 s⁻¹ | 426 µM
O=c1ccn([C@@H]2O[C@H](COP(=O)(O)OP(=O)(O)OP(=O)(O)O)[C@@H](O)[C@H]2O)c(=O)[nH]1 | 0.165 s⁻¹ | 4070 µM
Cc1[nH]nc2ccc(-c3cncc(OC[C@@H](N)Cc4c[nH]c5ccccc45)c3)cc12 | 0.213 s⁻¹ | 3270 µM
Oc1ccc(/C=C/c2cc(O)cc(F)c2)cc1 | 0.00866 s⁻¹ | 36 µM
Cc1cc(Nc2cc(N3CCN(C)CC3)nc(Sc3ccc(NC(=O)C4CC4)cc3)n2)n[nH]1 | 0.87 s⁻¹ | 1020 µM
CNC(=O)CN1CCC(Oc2cc3c(Nc4cccc(Cl)c4F)ncnc3cc2OC)CC1 | 1.08 s⁻¹ | 978 µM
COc1ncc(-c2ccc3nccc(C#CCN4CCN(S(C)(=O)=O)CC4)c3c2)cc1NS(=O)(=O)c1ccc(F)cc1F | 0.0971 s⁻¹ | 152 µM
N#Cc1ccc(COC[C@H]2O[C@@H](n3c(NCc4ccc(Cl)c(Cl)c4)nc4c(N)ncnc43)[C@H](O)[C@@H]2O)cc1 | 0.0281 s⁻¹ | 47.4 µM
CC(C)(C)S(=O)(=O)c1ccc2nccc(Nc3n[nH]c4ccc(F)cc34)c2c1 | 0.227 s⁻¹ | 1690 µM
CCCC(=O)Nc1ncnc2c1ncn2[C@@H]1O[C@@H]2COP(=O)(O)O[C@H]2[C@H]1OC(=O)CCC | 0.0143 s⁻¹ | 88.7 µM
